Results on 22 molecules are retold here after PMC12136788.

First the molecules themselves.
B1: chr16:67991837:67991979:-|CDS|ENSG00000167261|control|control|control (ssRNA)
RNA: GGGAGUUCUACAGUCCGACGAUCAACGACACUCAGAAAUUGGCCUGCCUCAUCGGUGUAGAGGGUGGCCACUCGCUGGACAAUAGCCUCUCCAUCUUACGUACCUUCUACAUGCUGGGAGUGCGCUACCUGACGCUCACCCACCAACAGAGGAUUGAGCAUCA
B2: chr2:112659350:112659462:+|CDS|ENSG00000144136|unk|total|mutant (ssRNA)
RNA: GGGAGUUCUACAGUCCGACGAUCCUUGCCAAGGUGGGAGAUUGCAUGGGAGACUCCGGUGACAAACCCUUAAGGCGCAAUAACCGCUAUACUUCCUAUACCAUGGCAAUAUGUGGCAUGCCUCUGGAUUCAUUCCGUGCCAAACAACAGAGGAUUGAGCAUCA
B3: ENSG00000104980:stop:overlap|stop_codon|ENSG00000104980|stop_codon|NA|stop_codon (ssRNA)
RNA: GGGAGUUCUACAGUCCGACGAUCUGCGGACGAGCGAGGUGCUACGGAAGAAGCUUGGGGAGCUGACGGGCACCGUGAAGGAGUAGAGCCUUCACGAAGUCAGUAAAAGUGAUCUCGGCCGGAAAAUCAAGGAGGGCGUGGAGGCAACAGAGGAUUGAGCAUCA
B4: ENSG00000178234:stop:overlap|stop_codon|ENSG00000178234|stop_codon|NA|stop_codon (ssRNA)
RNA: GGGAGUUCUACAGUCCGACGAUCUGUUAUCUGUUUCUAUAAUGAAGCGUUUUCUGCCUUGCUUCGGACAGUGCACAGUGUCAUAGACCGCACGCCAGCACACCUGCUUCAUGAGAUCAUCCUUGUGGAUGAUGAUAGUGACUUCAACAGAGGAUUGAGCAUCA
B5: chr3:122573770:122573871:+|3pUTR|ENSG00000163840|msi1|FALSE|unique (ssRNA)
RNA: GGGAGUUCUACAGUCCGACGAUCUAUUGGGUGCACUUGCCCUGCCACAGUAAUGCUAUAUAUUUCUGAGCAUUGUUUUUCUCUAGAUAAUUUUAUAUUUUUGAGUAUACCCCACUUCCAAGUGUUUUUUGUUUUGUUUUGCUUCAACAGAGGAUUGAGCAUCA
B6: chr20:64083387:64083705:-|CDS|ENSG00000171695|control|control|control (ssRNA)
RNA: GGGAGUUCUACAGUCCGACGAUCCUGAAGCCCGCGCGGAUCCCGGACCCCCUGGACCGCCAAGAGGUGCAGACAAGCCCCGGUAGGGGCGGGGAAAGGGGAGGGGCCCUGCCCGCCUCCGCACACGCCGGACCCCAGCCUCUCCAACAGAGGAUUGAGCAUCA
B7: chr10:5457295:5457390:+|3pUTR|ENSG00000173848|msi1_unk|total|mutant (ssRNA)
RNA: GGGAGUUCUACAGUCCGACGAUCUCUGGAUUCAUCAUGGCUUUCUAAUACCAAUUGUAAUAUUUACAAUAUUCACCAAAACUCCGAAUUUUGCAAAUGCUGGAAUUCUGCCAGUGUUUCUUUGCUAAGCCUUGCAUGCAAAAUCAACAGAGGAUUGAGCAUCA
B8: chr1:152033651:152033752:-|CDS|ENSG00000163191|unk|total|mutant (ssRNA)
RNA: GGGAGUUCUACAGUCCGACGAUCGGAUGGUUAUAACUACACUCUCUCCAAGACAGAGUUCCUAAGCUUCAUGAAUACAGAACCCGCUGCCUUCACAAAGGUACUGGUCCCUGUCUCCCCCACUUCCCCAAACUACCCACAACACAACAGAGGAUUGAGCAUCA
B9: chr1:6522505:6522606:-|3pUTR|ENSG00000162408|msi1|FALSE|unique (ssRNA)
RNA: GGGAGUUCUACAGUCCGACGAUCCUGGGAUUACAGGCGUGAGCCACUGCGCCUGGCCUGAAGCUAUUCUUUACAAAAGCUCUUAGUUUUUGUUUGUUUGUUUGUUUUUUUCUUUUGCGACGGACUCUCUGUCGCCAAGGCUGGCAACAGAGGAUUGAGCAUCA
B10: chr3:97755980:97756081:+|3pUTR|ENSG00000080224|unk|total|mutant (ssRNA)
RNA: GGGAGUUCUACAGUCCGACGAUCUAAUUAAAAAUCUCUUUCCUACCUUCCGUAAUUUGCCGGAUGAACUGUAUGCAUUCCGACCGAAAUUGCUUUUGUUAAAUUUACAUUUAAACACAUCUUCAUUCACUCCGAGAAGCCAUACAACAGAGGAUUGAGCAUCA
B11: chr20:3649766:3649867:+|3pUTR|ENSG00000088812|unk|total|mutant (ssRNA)
RNA: GGGAGUUCUACAGUCCGACGAUCAAGUUCAAAGACUAACCUGCCGCAAUCAGACUUUCCAAAAGGGGGUUCUCCAUUUUUUGCCGUUUUGUCUAAAUUUUUAAUGACCAUUUCCUGGAAUCAGUUUAUUAUACUGAAAACUGGCAACAGAGGAUUGAGCAUCA
B12: chr12:120700859:120700960:+|3pUTR|ENSG00000110917|msi1|FALSE|unique (ssRNA)
RNA: GGGAGUUCUACAGUCCGACGAUCUCUUUGCAUCUGUGUGGCUUGCUUCCAGUCUGGCCUGUCCUUUCCAGCUGCCUUUUGUCUAGCCUGCUAUGGGGGGCCAGAUUAUCUUGAUAAGAGCAGGUGAUUUGGGGACUAGCUGGGCAACAGAGGAUUGAGCAUCA
B13: chr20:1570784:1571137:-|CDS|ENSG00000101307|control|control|control (ssRNA)
RNA: GGGAGUUCUACAGUCCGACGAUCACAGCUGACCUGGUUGGAGAAUGGAAAUGUGUCCCGGACAGAAACAGCUUCGACCCUCAUAGAGAACAAGGAUGGCACCUACAACUGGAUGAGCUGGCUCCUGGUGAACACCUGUGCCCACAACAGAGGAUUGAGCAUCA
B14: chr14:71723713:71723820:+|CDS|ENSG00000197555|unk|FALSE|unique (ssRNA)
RNA: GGGAGUUCUACAGUCCGACGAUCGCUGCCCCCUCACAGCUCGCACCAUCCUUCUCCUCCUCUUCCUCCUCCUCCUCUGGUCCUAGGAGUUUUUACCCUCGCCAGGGCGCUACUAGCAAGUACCUGAUUGGAUGGAAAAAACCCCAACAGAGGAUUGAGCAUCA
B15: chr3:111884732:111884833:+|CDS|ENSG00000144824|msi1|FALSE|unique (ssRNA)
RNA: GGGAGUUCUACAGUCCGACGAUCCUUCAACCCAAGUUAACUAGACACAAGGAGCUUGCAUCUGAAAACAUCAAUUUGAGAACUAGGAAGUACUCCAGCAGCAGCCUGAGUCACAUGGGAGCCUACAGCCGAUCACUUCCCAGGCAACAGAGGAUUGAGCAUCA
B16: chr1:28768968:28769069:+|3pUTR|ENSG00000198492|msi1|FALSE|bound_elsewhere (ssRNA)
RNA: GGGAGUUCUACAGUCCGACGAUCGACUGCAGCAACGGUUGCAUCUGCAUAUCCUAAGAGGAAAAAAUGACCUUCAAGAGAAUUAGGACUUUUUUCUUAAUUUCACUGACUUCAGAGACGAUUGCAGACUUGCAGUUUAAGUAUCAACAGAGGAUUGAGCAUCA
B17: chr1:45640296:45640398:-|CDS|ENSG00000159592|unk|total|mutant (ssRNA)
RNA: GGGAGUUCUACAGUCCGACGAUCCUCUCCACUCUUGUACUUCACAGAAAACCCGCCCCGUGCCAAGCAACCCUCCAAGAUGCCCGUUAUCAAAAAAGUUUCCAAAGAGGAUCCUGCUGCUGCCUUCUCUGCUGCAUUCACCUCCAACAGAGGAUUGAGCAUCA
B18: chr12:32745429:32745530:+|3pUTR|ENSG00000087470|msi1|total|mutant (ssRNA)
RNA: GGGAGUUCUACAGUCCGACGAUCCAACGGAAAGAGAAAAGCCUUCCUUUGUUGGCCCUUAAACUGAGUCAAGAUCUGAAAUGCCGAGAUGAUCUCUGACGAUACCUGUAUGUUCUUAUUGUGUAAAUAAAAUUGCUGGUAUGACAACAGAGGAUUGAGCAUCA
B19: ENSG00000107863:be:win_4551|CDS|ENSG00000107863|bound_else_gene|NA|bound_elsewhere_windowed (ssRNA)
RNA: GGGAGUUCUACAGUCCGACGAUCCAGCUGUCGCUUUGCCAUCCUGAAAGAGAGCCCCAGGUCACUUCUGGCACAGAAGUCCUCCCACCUUGAAGAGACAGGCUCUGACUCUGGCACUUUGCUCAGCACGUCUUCCCAGGCCUCCAACAGAGGAUUGAGCAUCA
B20: chr8:39103990:39104232:+|3pUTR|ENSG00000168615|msi1|total|mutant (ssRNA)
RNA: GGGAGUUCUACAGUCCGACGAUCGUUUUGUCAUUAAGUGUUUAAGUGUUAUUCUGAAUUUUCUACCUCCGUUAUCAUUAAUGCCGUUCCUCAUUGAACAUGUGAUAAUCUAAUACCUGUGAAAACUGACUAAUCAGCUGCCAACAACAGAGGAUUGAGCAUCA
B21: chr10:119917856:119917957:+|CDS|ENSG00000107651|unk|total|mutant (ssRNA)
RNA: GGGAGUUCUACAGUCCGACGAUCUAAGAAAAUCACUUUGCCAAGUAUUGGUCGAUUUCGUCACUUUACCAAUGAAACUUUGCCCGAUAUUUUAUUUUAUAACAGCCCCACCUACUGUCAGACAAUUGUGGAAAAAGCCGGAAUCAACAGAGGAUUGAGCAUCA
B22: ENSG00000072803:stop:overlap|stop_codon|ENSG00000072803|stop_codon|NA|stop_codon (ssRNA)
RNA: GGGAGUUCUACAGUCCGACGAUCCUGGAUACAGUAAACGGAAAGAAUCUUGGAAGAUGCUUGACUGCUGUCUUUUCUCAGACUAGUCUGAAAGGGAAAACCCCCAUUCAUUCUGGAUUGGUGGAUCUGAAGUACAAAAUAUUUCAACAGAGGAUUGAGCAUCA

The other results are listed elsewhere or left out.

The assay has as its target MSI1 full-length (mouse, UniProt Q61474 1-362). The assay can be described thus: nsRBNS (natural sequence RNA bind-n-seq); RBNS binding buffer (assumed for nsRBNS): 25 mM Tris pH 7.5, 150 mM KCl, 3 mM MgCl2, 0.01% Triton X-100, 500 ug/ml BSA, 20 U/ml SUPERase-In, 4 C; UNK is unkempt and MSI1 is Musashi-1; names of the RNAs are library labels; protein concentration not given here; high values mean tight binding.
Chain of UniProt Q61474 (Q61474 whole entry): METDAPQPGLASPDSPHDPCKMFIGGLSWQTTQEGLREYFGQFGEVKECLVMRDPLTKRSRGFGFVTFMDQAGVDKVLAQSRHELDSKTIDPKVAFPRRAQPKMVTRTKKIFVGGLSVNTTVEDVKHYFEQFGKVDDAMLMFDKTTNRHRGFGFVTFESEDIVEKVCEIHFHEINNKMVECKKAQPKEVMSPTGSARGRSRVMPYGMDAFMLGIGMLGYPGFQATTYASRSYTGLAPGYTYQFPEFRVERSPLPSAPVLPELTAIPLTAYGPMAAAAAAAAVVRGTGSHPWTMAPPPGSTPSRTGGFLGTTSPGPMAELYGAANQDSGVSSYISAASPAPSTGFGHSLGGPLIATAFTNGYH
B1 gave a binding signal of 0.491 enrichment R. For the molecule B2, the binding signal worked out at 0.413 enrichment R. The figure for B3 is 0.57 enrichment R. In the case of B4 it was 0.258 enrichment R; in that of B5, 9.19 enrichment R; in that of B6, 0.362 enrichment R.

The molecule B7 came in with a binding signal of 0.258 enrichment R. As to B8, the binding signal was found to be 0.705 enrichment R. On to B9, for which the binding signal came out at 0.372 enrichment R. B10 registered a binding signal of 1.21 enrichment R.

B11 gave a binding signal of 0.35 enrichment R. The figure for B12 is 0.459 enrichment R; for B13 it is 0.427 enrichment R; for B14 it is 0.865 enrichment R. In the case of B15 it was 0.686 enrichment R.

On to B16, for which the binding signal was determined as 0.196 enrichment R.

Regarding B17, the binding signal came out at 0.762 enrichment R. With B18, the binding signal stood at 0.228 enrichment R.

For the molecule B19, the binding signal came to 0.449 enrichment R.

The molecule B20 gave a binding signal of 0.962 enrichment R. In the case of B21 it was 0.52 enrichment R; in that of B22, 0.904 enrichment R.
